Laboratory results reported in the supplement of paper PMC8728848.
Some of the results follow.

Legend:
Assay in all cases: glycan array binding signal (z-score within array); higher = stronger binding
Details in all cases: glycan notation: IUPAC condensed, linker removed
[1] = target: GlcNAc(b1-3)Gal(b1-4)GlcNAc(b1-3)GalNAc
Procedure, shortened: (§1)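 Columns mapping to the same glycan were averaged after glycan names were converted to IUPAC-condensed notation. The data come from 3228 arrays in the Consortium for Functional Glycomics database, limited to those with an available protein sequence. Binding is reported as a within-array Z-score averaged across arrays of one protein sequence and across linkers.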

[2] = target: GlcNAc(b1-3)Gal(b1-4)GlcNAc(b1-3)[GlcNAc(b1-3)Gal(b1-4)GlcNAc(b1-3)]GalNAc
Procedure, shortened: as §1

[3] = target: GlcNAc(b1-3)Gal(b1-4)GlcNAc(b1-6)[Gal(b1-3)]GalNAc
Procedure, shortened: as §1

[4] = target: GlcNAc(b1-3)Gal(b1-4)GlcNAc(b1-6)[GlcNAc(b1-3)Gal(b1-3)]GalNAc
Procedure, shortened: as §1

[5] = target: GlcNAc(b1-3)Gal(b1-4)GlcNAc(b1-6)[GlcNAc(b1-3)]Gal(b1-4)GlcNAc
Procedure, shortened: as §1

GlcNAc(b1-3)GalNAc = target: GlcNAc(b1-3)GalNAc
Procedure, shortened: as §1

GlcNAc(b1-3)Man = target: GlcNAc(b1-3)Man
Procedure, shortened: as §1

[6] = target: GlcNAc(b1-3)[GlcNAc(b1-4)][GlcNAc(b1-6)]GlcNAc
Procedure, shortened: as §1

[7] = target: GlcNAc(b1-3)[GlcNAc(b1-6)]Gal(b1-4)GlcNAc
Procedure, shortened: as §1

[8] = target: GlcNAc(b1-3)[GlcNAc(b1-6)]GalNAc
Procedure, shortened: as §1

[9] = target: GlcNAc(b1-4)Gal(b1-4)GlcNAc
Procedure, shortened: as §1

GlcNAc(b1-4)GlcNAc = target: GlcNAc(b1-4)GlcNAc
Procedure, shortened: as §1

[10] = target: GlcNAc(b1-4)GlcNAc(b1-4)GlcNAc
Procedure, shortened: as §1

[11] = target: GlcNAc(b1-4)GlcNAc(b1-4)GlcNAc(b1-4)GlcNAc(b1-4)GlcNAc
Procedure, shortened: as §1

[12] = target: GlcNAc(b1-4)GlcNAc(b1-4)GlcNAc(b1-4)GlcNAc(b1-4)GlcNAc(b1-4)GlcNAc
Procedure, shortened: as §1

[13] = target: GlcNAc(b1-4)[GlcNAc(b1-6)]GalNAc
Procedure, shortened: as §1

[14] = target: GlcNAc(b1-6)Gal(b1-4)GlcNAc
Procedure, shortened: as §1

GlcNAc(b1-6)GalNAc = target: GlcNAc(b1-6)GalNAc
Procedure, shortened: as §1

[15] = target: GlcNAc6S(b1-3)Gal(b1-4)GlcNAc
Procedure, shortened: as §1

Kdn(a2-3)Gal(b1-3)GalNAc = target: Kdn(a2-3)Gal(b1-3)GalNAc
Procedure, shortened: as §1

Kdn(a2-3)Gal(b1-3)GlcNAc = target: Kdn(a2-3)Gal(b1-3)GlcNAc
Procedure, shortened: as §1

Kdn(a2-3)Gal(b1-4)Glc = target: Kdn(a2-3)Gal(b1-4)Glc
Procedure, shortened: as §1

Kdn(a2-3)Gal(b1-4)GlcNAc = target: Kdn(a2-3)Gal(b1-4)GlcNAc
Procedure, shortened: as §1

[16] = target: Kdn(a2-3)Gal(b1-4)[Fuc(a1-3)]GlcNAc
Procedure, shortened: as §1

Kdn(a2-6)Gal(b1-4)GlcNAc = target: Kdn(a2-6)Gal(b1-4)GlcNAc
Procedure, shortened: as §1

[17] = target: Man(a1-2)Man(a1-2)Man(a1-3)Man
Procedure, shortened: as §1

[18] = target: Man(a1-2)Man(a1-2)Man(a1-6)[Man(a1-3)]Man
Procedure, shortened: as §1

Man(a1-2)Man(a1-3)Man = target: Man(a1-2)Man(a1-3)Man
Procedure, shortened: as §1

[19] = target: Man(a1-2)Man(a1-3)[Man(a1-2)Man(a1-6)]Man
Procedure, shortened: as §1

[20] = target: Man(a1-2)Man(a1-3)[Man(a1-2)Man(a1-6)]Man(a1-6)[Man(a1-2)Man(a1-2)Man(a1-3)]Man
Procedure, shortened: as §1

[21] = target: Man(a1-2)Man(a1-3)[Man(a1-2)Man(a1-6)]Man(a1-6)[Man(a1-2)Man(a1-2)Man(a1-3)]Man(b1-4)GlcNAc(b1-4)GlcNAc
Procedure, shortened: as §1

[22] = target: Man(a1-2)Man(a1-3)[Man(a1-6)]Man(a1-6)[Man(a1-2)Man(a1-3)]Man(b1-4)GlcNAc(b1-4)GlcNAc
Procedure, shortened: as §1

[23] = target: Man(a1-2)Man(a1-6)[Man(a1-3)]Man(a1-6)[Man(a1-2)Man(a1-2)Man(a1-3)]Man
Procedure, shortened: as §1

[24] = target: Man(a1-2)Man(a1-6)[Man(a1-3)]Man(a1-6)[Man(a1-2)Man(a1-2)Man(a1-3)]Man(b1-4)GlcNAc(b1-4)GlcNAc
Procedure, shortened: as §1

Man(a1-3)[Man(a1-6)]Man = target: Man(a1-3)[Man(a1-6)]Man
Procedure, shortened: as §1

[25] = target: Man(a1-3)[Man(a1-6)]Man(a1-6)[Man(a1-2)Man(a1-3)]Man(b1-4)GlcNAc(b1-4)GlcNAc
Procedure, shortened: as §1

[26] = target: Man(a1-3)[Man(a1-6)]Man(a1-6)[Man(a1-3)]Man
Procedure, shortened: as §1

B1: Pbx1 (Cryptococcus neoformans) (protein)
chain: ATTKCLVSGDQDSINNALALGGEGTTVTLCPGSVHRLNSSIIFTAPSQTLTTLGNPKDRNRAMLVVDGEDLACAIRADCKQCSHAMIRSLVIDGNRPQLLRIPKGDALIEVGNAESQTVRDCKLYEPRGWSALHFREGDERQCRFGHIVDNEIGPCGEEWDDEYDSMDETKPLWGNPRADGISLACKDSIVERNVVYDATDGAIVLFGSAGSTVKNNHVYARTRVILGGINLVDYEPWDGDYTNVKVHHNHLYALGRYFKVGIVIGPASWSDDTESVVHSASVTDNEFSGGYWGYGIVVASAKNFEVLRNKVIWDGEQGVARFSGVPGSRCPKAPENGKPTAFLINRGSAKGIFQDDFVNGEVQHIICLNPDQDPPYKPWRFRDSPEAIAAKQAENPTANSAFDSRIAEALVSYQMSLLNSMDAMTQKVEHLTNPIVDDALPFVHEHERAEADKKARQEASRKEKESGNKDVDMLNVKVEELEKSGRRLKKALDGLKSDFEGLSGRLKKSADENKPIIETIFVTSQNLLLGATSQQN
For B1, the “glycan array binding signal (z-score)” value [1] was -0.666, the “glycan array binding signal (z-score)” value [2] was -0.748 and the “glycan array binding signal (z-score)” value [3] was -0.674. The “glycan array binding signal (z-score)” value [4] was -0.852, the “glycan array binding signal (z-score)” value [5] was -0.917 and the “glycan array binding signal (z-score)” value (GlcNAc(b1-3)GalNAc) was -0.45. For the same binder, the “glycan array binding signal (z-score)” value (GlcNAc(b1-3)Man) was -0.289, the “glycan array binding signal (z-score)” value [6] was -1.09 and the “glycan array binding signal (z-score)” value [7] was -0.304. For the same binder, the “glycan array binding signal (z-score)” value [8] was -0.235, the “glycan array binding signal (z-score)” value [9] was -0.701 and the “glycan array binding signal (z-score)” value (GlcNAc(b1-4)GlcNAc) was -0.106. For the same binder, the “glycan array binding signal (z-score)” value [10] was -0.565, the “glycan array binding signal (z-score)” value [11] was -0.631 and the “glycan array binding signal (z-score)” value [12] was -0.063. For the same binder, the “glycan array binding signal (z-score)” value [13] was -0.078, the “glycan array binding signal (z-score)” value [14] was -0.045 and the “glycan array binding signal (z-score)” value (GlcNAc(b1-6)GalNAc) was -0.262. The “glycan array binding signal (z-score)” value [15] was -0.492, the “glycan array binding signal (z-score)” value (Kdn(a2-3)Gal(b1-3)GalNAc) was -0.291 and the “glycan array binding signal (z-score)” value (Kdn(a2-3)Gal(b1-3)GlcNAc) was -0.179. The “glycan array binding signal (z-score)” value (Kdn(a2-3)Gal(b1-4)Glc) was -0.414, the “glycan array binding signal (z-score)” value (Kdn(a2-3)Gal(b1-4)GlcNAc) was 0.25 and the “glycan array binding signal (z-score)” value [16] was 0.465. The “glycan array binding signal (z-score)” value (Kdn(a2-6)Gal(b1-4)GlcNAc) was 0.284, the “glycan array binding signal (z-score)” value [17] was -0.536 and the “glycan array binding signal (z-score)” value [18] was -0.052. For the same binder, the “glycan array binding signal (z-score)” value (Man(a1-2)Man(a1-3)Man) was -0.774, the “glycan array binding signal (z-score)” value [19] was -0.431 and the “glycan array binding signal (z-score)” value [20] was -0.49. The “glycan array binding signal (z-score)” value [21] was 0.114, the “glycan array binding signal (z-score)” value [22] was -0.619 and the “glycan array binding signal (z-score)” value [23] was -0.306. For the same binder, the “glycan array binding signal (z-score)” value [24] was -0.921, the “glycan array binding signal (z-score)” value (Man(a1-3)[Man(a1-6)]Man) was -0.673 and the “glycan array binding signal (z-score)” value [25] was -0.213. For the same binder, the “glycan array binding signal (z-score)” value [26] was -0.17.
